Here are results for 25 variants from the supplement of paper PMC7125110.

First the molecules themselves.
B1: glmS ribozyme (parent)
chain: AUAAAAGCGCCAGAACUACAGAAAUGUAGUUGACGAGGAGGAGGUUUAUCGAAUUUUCGGCGGAUGCCUCCAAA

Holding throughout (settings): with glucosamine-6-phosphate
The variants in data set [1] derive from B1. The data set is described as follows: kcat; higher = faster cleavage; RNA array. In a few lines:
(§1)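 Barcoded glmS ribozyme variants on sequenced MiSeq chips were transcribed in situ by E. coli RNA polymerase and tracked through a hybridised Cy3 probe at 37 °C. Glucosamine-6-phosphate (40 μM to 10 mM) in HEPES/KCl/Mg(OAc)2 buffer was flowed in, and tiles were imaged over ~14 h. Signals were normalised to baseline and to non-cleaving reference variants; per-tile medians were fit to one- or two-exponential decays to give kobs. kcat and KM came from weighted Michaelis–Menten fits across concentrations.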

The variants in data set [2] derive from B1. The data set is described as follows: self-cleavage kobs at 10000 uM GlcN6P; higher = faster cleavage; RNA array. In outline:
as §1

The variants in data set [3] derive from B1. The data set is described as follows: self-cleavage kobs at 40 uM GlcN6P; higher = faster cleavage; RNA array. In outline:
as §1

The variants in data set [4] derive from B1. Briefly: self-cleavage kobs at 640 uM GlcN6P; higher = faster cleavage; RNA array. In a few lines:
as §1

Data set [5] covers variants of B1. Briefly: self-cleavage kobs at 160 uM GlcN6P; higher = faster cleavage; RNA array. In outline:
as §1

The variants in data set [6] derive from B1. The data set is described as follows: self-cleavage kobs at 2500 uM GlcN6P; higher = faster cleavage; RNA array. In outline:
as §1

± gives the standard error. Variants at the background level are over-represented here.

With U31A G37U, the kcat with glucosamine-6-phosphate [1] is less than 1e-05 s⁻¹. For the same variant, in the data set with glucosamine-6-phosphate [2], the “self-cleavage kobs at 10000 uM GlcN6P” value is less than 1e-05 s⁻¹.

For U47C A48G, in the data set with glucosamine-6-phosphate [1], the kcat is less than 1e-05 s⁻¹. The “self-cleavage kobs at 40 uM GlcN6P” value with glucosamine-6-phosphate [3] was less than 1e-05 s⁻¹. In the data set with glucosamine-6-phosphate [4], the “self-cleavage kobs at 640 uM GlcN6P” value is less than 1e-05 s⁻¹. Also, in the data set with glucosamine-6-phosphate [5], the “self-cleavage kobs at 160 uM GlcN6P” value was less than 1e-05 s⁻¹. Further, the “self-cleavage kobs at 10000 uM GlcN6P” value with glucosamine-6-phosphate [2] was less than 1e-05 s⁻¹.

For the variant A64G C68G, the kcat in the data set with glucosamine-6-phosphate [1] was less than 1e-05 s⁻¹. In addition, in the data set with glucosamine-6-phosphate [3], the “self-cleavage kobs at 40 uM GlcN6P” value is less than 1e-05 s⁻¹. The “self-cleavage kobs at 160 uM GlcN6P” value with glucosamine-6-phosphate [5] was less than 1e-05 s⁻¹.

On to A6G A14C G62U G63U, for which, in the data set with glucosamine-6-phosphate [3], the “self-cleavage kobs at 40 uM GlcN6P” value is less than 1e-05 s⁻¹.

Consider A6C G13U G35A C71A, for which the “self-cleavage kobs at 40 uM GlcN6P” value with glucosamine-6-phosphate [3] was less than 1e-05 s⁻¹.

With A6G A15C A53G, the “self-cleavage kobs at 40 uM GlcN6P” value in the data set with glucosamine-6-phosphate [3] was less than 1e-05 s⁻¹. The “self-cleavage kobs at 2500 uM GlcN6P” value with glucosamine-6-phosphate [6] was 6.25e-05 ± 2e-05 s⁻¹.

G7A C11U U30A: the “self-cleavage kobs at 40 uM GlcN6P” value with glucosamine-6-phosphate [3] is less than 1e-05 s⁻¹.

On to A6U U46G C58A, for which the “self-cleavage kobs at 40 uM GlcN6P” value in the data set with glucosamine-6-phosphate [3] is less than 1e-05 s⁻¹.

Consider G35C C58G, for which the kcat with glucosamine-6-phosphate [1] is less than 1e-05 s⁻¹. The “self-cleavage kobs at 40 uM GlcN6P” value with glucosamine-6-phosphate [3] is less than 1e-05 s⁻¹. Also, the “self-cleavage kobs at 640 uM GlcN6P” value with glucosamine-6-phosphate [4] is less than 1e-05 s⁻¹. Besides, the “self-cleavage kobs at 160 uM GlcN6P” value with glucosamine-6-phosphate [5] is less than 1e-05 s⁻¹. The “self-cleavage kobs at 10000 uM GlcN6P” value with glucosamine-6-phosphate [2] is less than 1e-05 s⁻¹.

Take G7C A12U G38U G40C U49G U56G: in the data set with glucosamine-6-phosphate [3], the “self-cleavage kobs at 40 uM GlcN6P” value is less than 1e-05 s⁻¹.

In the case of U56G G62U, the kcat with glucosamine-6-phosphate [1] is less than 1e-05 s⁻¹. The “self-cleavage kobs at 40 uM GlcN6P” value with glucosamine-6-phosphate [3] is less than 1e-05 s⁻¹. Also, the “self-cleavage kobs at 640 uM GlcN6P” value with glucosamine-6-phosphate [4] was less than 1e-05 s⁻¹. Besides, the “self-cleavage kobs at 10000 uM GlcN6P” value with glucosamine-6-phosphate [2] was less than 1e-05 s⁻¹.

On to G7C A64U, for which the “self-cleavage kobs at 40 uM GlcN6P” value with glucosamine-6-phosphate [3] is less than 1e-05 s⁻¹. The “self-cleavage kobs at 2500 uM GlcN6P” value in the data set with glucosamine-6-phosphate [6] was less than 1e-05 s⁻¹. Besides, in the data set with glucosamine-6-phosphate [2], the “self-cleavage kobs at 10000 uM GlcN6P” value was less than 1e-05 s⁻¹.

In the case of A6G G51U, in the data set with glucosamine-6-phosphate [3], the “self-cleavage kobs at 40 uM GlcN6P” value was less than 1e-05 s⁻¹. In addition, the “self-cleavage kobs at 640 uM GlcN6P” value with glucosamine-6-phosphate [4] was less than 1e-05 s⁻¹. Further, in the data set with glucosamine-6-phosphate [5], the “self-cleavage kobs at 160 uM GlcN6P” value is less than 1e-05 s⁻¹. In addition, in the data set with glucosamine-6-phosphate [6], the “self-cleavage kobs at 2500 uM GlcN6P” value is less than 1e-05 s⁻¹. In addition, in the data set with glucosamine-6-phosphate [2], the “self-cleavage kobs at 10000 uM GlcN6P” value is less than 1e-05 s⁻¹.

On to A6G G38A, for which, in the data set with glucosamine-6-phosphate [3], the “self-cleavage kobs at 40 uM GlcN6P” value was less than 1e-05 s⁻¹. Moreover, the “self-cleavage kobs at 2500 uM GlcN6P” value with glucosamine-6-phosphate [6] was less than 1e-05 s⁻¹. In the data set with glucosamine-6-phosphate [2], the “self-cleavage kobs at 10000 uM GlcN6P” value is less than 1e-05 s⁻¹.

Take A6U A53G G62A: the “self-cleavage kobs at 40 uM GlcN6P” value with glucosamine-6-phosphate [3] was less than 1e-05 s⁻¹.

C16G C34G: the kcat with glucosamine-6-phosphate [1] is less than 1e-05 s⁻¹. Also, in the data set with glucosamine-6-phosphate [2], the “self-cleavage kobs at 10000 uM GlcN6P” value is less than 1e-05 s⁻¹.

For G32C U57G, in the data set with glucosamine-6-phosphate [1], the kcat is less than 1e-05 s⁻¹. Moreover, the “self-cleavage kobs at 160 uM GlcN6P” value with glucosamine-6-phosphate [5] is less than 1e-05 s⁻¹.

As to U55G C61U, the kcat with glucosamine-6-phosphate [1] was less than 1e-05 s⁻¹. Also, in the data set with glucosamine-6-phosphate [3], the “self-cleavage kobs at 40 uM GlcN6P” value was less than 1e-05 s⁻¹.

For G7A G9C, the “self-cleavage kobs at 40 uM GlcN6P” value in the data set with glucosamine-6-phosphate [3] is less than 1e-05 s⁻¹. Further, the “self-cleavage kobs at 640 uM GlcN6P” value in the data set with glucosamine-6-phosphate [4] was less than 1e-05 s⁻¹. For the same variant, the “self-cleavage kobs at 160 uM GlcN6P” value with glucosamine-6-phosphate [5] is less than 1e-05 s⁻¹. In addition, the “self-cleavage kobs at 2500 uM GlcN6P” value with glucosamine-6-phosphate [6] was less than 1e-05 s⁻¹. Moreover, in the data set with glucosamine-6-phosphate [2], the “self-cleavage kobs at 10000 uM GlcN6P” value is less than 1e-05 s⁻¹.

As to A6G C68G, in the data set with glucosamine-6-phosphate [3], the “self-cleavage kobs at 40 uM GlcN6P” value was less than 1e-05 s⁻¹. In addition, in the data set with glucosamine-6-phosphate [4], the “self-cleavage kobs at 640 uM GlcN6P” value is less than 1e-05 s⁻¹.

For G7A G60U, the “self-cleavage kobs at 40 uM GlcN6P” value with glucosamine-6-phosphate [3] is less than 1e-05 s⁻¹. For the same variant, the “self-cleavage kobs at 640 uM GlcN6P” value with glucosamine-6-phosphate [4] is less than 1e-05 s⁻¹. In the data set with glucosamine-6-phosphate [6], the “self-cleavage kobs at 2500 uM GlcN6P” value is less than 1e-05 s⁻¹. The “self-cleavage kobs at 10000 uM GlcN6P” value with glucosamine-6-phosphate [2] was less than 1e-05 s⁻¹.

As for G60A C68U, the kcat with glucosamine-6-phosphate [1] was less than 1e-05 s⁻¹. Besides, the “self-cleavage kobs at 160 uM GlcN6P” value with glucosamine-6-phosphate [5] was less than 1e-05 s⁻¹.

For G37C C67G, in the data set with glucosamine-6-phosphate [1], the kcat is less than 1e-05 s⁻¹.

Take C61G C70A: in the data set with glucosamine-6-phosphate [1], the kcat is less than 1e-05 s⁻¹. Moreover, in the data set with glucosamine-6-phosphate [2], the “self-cleavage kobs at 10000 uM GlcN6P” value was less than 1e-05 s⁻¹.

In the case of G32C G59A, in the data set with glucosamine-6-phosphate [1], the kcat is less than 1e-05 s⁻¹. Also, in the data set with glucosamine-6-phosphate [3], the “self-cleavage kobs at 40 uM GlcN6P” value was less than 1e-05 s⁻¹. In addition, the “self-cleavage kobs at 160 uM GlcN6P” value with glucosamine-6-phosphate [5] is less than 1e-05 s⁻¹. Further, the “self-cleavage kobs at 2500 uM GlcN6P” value with glucosamine-6-phosphate [6] was less than 1e-05 s⁻¹.
